# Test results as given in PubChem BioAssay AID1468 (National Center for Advancing Translational Sciences (NCATS), 2008).
# The whole screen tested about 280,000 compounds, of which about 1,100 (0.39%) were called active. The shares of active, inactive and inconclusive entries below differ from those in the screen. The call rests on the fitted dose curve; in most records, active means well fitted inhibition curve with a large enough effect; inconclusive means small, poorly fitted or top-dose-only effect, or effect the other way; inactive means flat fitted curve, though single readings scatter. No potency is given beside an inconclusive call; the fits are too rough. A structure can be active in one record and inactive in another.
# Molecular target: Microtubule-associated protein tau (Homo sapiens) (UniProt P10636)
# Assay: qHTS for Inhibitors of Tau Fibril Formation, Fluorescence Polarization; further: nearly all actives have a fitted effect of over 55% in size
# Conditions: K18 P301L tau heparin fibrillization, Alexa594 FP, 6 h; series mostly up to 57.7 µM; activity, negative = inhibition: at the top concentration
# How it was run: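 Human tau K18 […] P301L fragment, 15 uM unlabeled plus 0.24 uM Alexa 594-labeled tau (final), with compound and 20 uM heparin in 100 mM sodium acetate pH 7; 6 hr at 37 C, then Alexa 594 FP read.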
# On the % scale 0 is the no-effect control and ±100 the full control effect; potency means the concentration at half of the fitted maximal effect; tags describe the fitted curve by direction and shape.
# UniProt P10636, sequence (P10636 whole entry, looked up): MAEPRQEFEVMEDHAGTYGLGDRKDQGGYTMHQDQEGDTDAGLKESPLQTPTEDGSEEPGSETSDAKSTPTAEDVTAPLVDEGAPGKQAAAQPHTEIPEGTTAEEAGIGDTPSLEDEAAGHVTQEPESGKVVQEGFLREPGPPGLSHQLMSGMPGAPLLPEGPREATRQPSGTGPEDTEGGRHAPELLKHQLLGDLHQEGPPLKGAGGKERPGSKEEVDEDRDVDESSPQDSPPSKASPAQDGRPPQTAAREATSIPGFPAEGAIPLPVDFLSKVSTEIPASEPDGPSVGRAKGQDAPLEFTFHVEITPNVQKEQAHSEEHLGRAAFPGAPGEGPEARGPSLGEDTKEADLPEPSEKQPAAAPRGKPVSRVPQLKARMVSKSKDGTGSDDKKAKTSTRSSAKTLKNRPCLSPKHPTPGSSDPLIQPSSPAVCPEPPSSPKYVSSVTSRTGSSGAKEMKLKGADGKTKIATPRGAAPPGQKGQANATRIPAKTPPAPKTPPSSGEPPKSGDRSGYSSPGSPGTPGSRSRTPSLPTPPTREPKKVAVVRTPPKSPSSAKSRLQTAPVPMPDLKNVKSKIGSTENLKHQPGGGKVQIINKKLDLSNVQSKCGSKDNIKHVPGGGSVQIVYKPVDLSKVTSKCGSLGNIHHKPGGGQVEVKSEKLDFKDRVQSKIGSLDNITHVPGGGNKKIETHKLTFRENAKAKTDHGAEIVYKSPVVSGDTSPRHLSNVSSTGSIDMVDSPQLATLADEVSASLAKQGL
Compound,"activity, negative = inhibition",Potency
Cc1ccc2nc(SCC(=O)c3ccc4c(c3)OCO4)[nH]c2c1,inactive: 0.156%,
CCOC(=O)/C(=C/c1c(C)n(C)c2ccc([N+](=O)[O-])cc12)C(C)=O,,"inconclusive [activator, partial curve]"
Cc1ccc(OCC(=O)N2CCN(C(=O)CCC3CCCC3)CC2)cc1,inactive: 9.3%,
Cc1ccc(Cl)cc1NC(=O)N1CCC(CN2CCc3ccccc3C2)CC1,inactive: -6.36%,
CCOc1ccc(C(=O)NCc2nc(-c3ccc(Cl)cc3)no2)cc1OCC,,"inconclusive [inhibitor, single point]"
NCc1c(O)ccc2ccccc12,inactive: 7.37%,
CC1(C)C(=O)Nc2ccccc2N1C(=O)COc1ccc(S(=O)(=O)N2CCOCC2)cc1Cl,,"inconclusive [inhibitor, single point]"
COc1ccc(C(=O)O)cc1S(=O)(=O)Nc1ccc(C)cc1,inactive: 8.6%,
COc1ccc2c(CC(=O)NCCN3C(=O)S/C(=C\c4cccnc4)C3=O)coc2c1,,"inconclusive [inhibitor, single point]"
Cc1ccc(S(=O)(=O)Nc2ccc(NC(=O)c3cccs3)cc2)cc1,,"inconclusive [inhibitor, single point]"
COC(=O)c1ccc(-c2ccc(C(c3c(C)[nH][nH]c3=O)c3c(C)[nH][nH]c3=O)o2)cc1,,"inconclusive [inhibitor, partial curve]"
O=C(CN1C(=O)C2(SCC(=O)N2c2ccc(F)c(F)c2)c2ccccc21)Nc1cccc(Cl)c1 (stereo not given),,"inconclusive [inhibitor, partial curve]"
COc1ccccc1-c1nnc(SC(C(=O)c2c[nH]c3ccccc23)c2ccccc2)n1C (stereo not given),,"inconclusive [inhibitor, partial curve]"
O=C(CSc1nnnn1-c1ccccc1)c1ccc(O)cc1O,,"inconclusive [inhibitor, single point]"
Cc1ccc(C(C(=O)NC2CCCCC2)N2CCCC2)cc1 (stereo not given),inactive: 0.523%,
CCOc1ccccc1CNC(=O)c1oc2c(c1C)-c1nn(Cc3cccc(Cl)c3)cc1CC2,,"inconclusive [activator, partial curve, poor fit]"
O=C(Nc1cccc(OCc2cc(=O)n3ccccc3n2)c1)Nc1cccc(C(F)(F)F)c1,,"inconclusive [inhibitor, full curve]"
COc1ccc(OC)c(NC(=O)NNC(=O)CCCOc2ccc(Cl)cc2C)c1,,"inconclusive [activator, single point]"
O=C(c1ccccc1F)N1C(=O)c2cccc3cccc1c23,,"inconclusive [inhibitor, partial curve]"
CC1CCN(C(=S)c2ccc(O)cc2)CC1,,"inconclusive [inhibitor, partial curve, poor fit]"
COc1cccc(NC(=O)Cn2c(=O)n(Cc3ccc(C(=O)NCc4ccc(C)cc4)cc3)c(=O)c3ccccc32)c1,,"inconclusive [inhibitor, single point]"
CCOC(=O)c1c(C)n(-c2ccccc2)c2ccc(OC(=O)c3c(F)cccc3F)cc12,,"inconclusive [inhibitor, partial curve]"
O=C(COc1ccc(F)cc1)Nc1ccc2nc(SCCOc3ccccc3)sc2c1,,"inconclusive [inhibitor, partial curve]"
C[C@@H]1CN(Cc2nc(-c3ccc(Cl)cc3)no2)C[C@H](C)O1,inactive: 5.43%,

Compound,"activity, negative = inhibition",Potency
COC(=O)c1cc2sccc2n1Cc1ccc(F)cc1Cl,,"inconclusive [inhibitor, full curve, poor fit]"
COc1ccc(NC(=S)NCC2CCN(c3ccc(OC)cc3)C2)cc1 (stereo not given),,"inconclusive [activator, partial curve]"
CC1(C)CC(=O)C2=C(C1)OC(N)=C(C#N)C21C(=O)N(Cc2ccccc2Cl)c2ccccc21 (stereo not given),,"inconclusive [inhibitor, single point]"
CNc1ccccc(C(=O)/C=C/c2ccccc2OC)c1=O,,"inconclusive [inhibitor, partial curve]"
COCCn1c(=N)c(C(=O)NC2CCCC2)cc2c(=O)n3cc(C)ccc3nc21,inactive: -1.94%,
Cc1cc2oc(C(=O)Nc3ccc(S(=O)(=O)Nc4onc(C)c4C)cc3)cc(=O)c2cc1C,inactive: 1.84%,
Cc1ccc(C)c(NC(=O)Cn2c(=O)oc3cc(S(=O)(=O)NCc4ccccc4)ccc32)c1,,"inconclusive [inhibitor, partial curve]"
CCc1ccc(NS(=O)(=O)c2cccc3nonc23)cc1,inactive: 6.75%,
Cn1nc(-c2ccc(Cl)cc2)cc1NC(=O)Nc1ccccc1,,"inconclusive [inhibitor, partial curve]"
Cc1ccc(CSCC(=O)N/N=C/c2ccc(OCC(=O)Nc3ccc(C)cc3)cc2)cc1,,"inconclusive [inhibitor, partial curve, poor fit]"
CCN(CCCNC(=O)c1cc2c(=O)[nH]c3ccc(C)cc3c2s1)Cc1ccccc1,,"inconclusive [inhibitor, partial curve, poor fit]"
NC[C@H](O)c1ccc(O)c(O)c1,,active: 6.31 µM
Cc1cccn2c1nc(=S)n2C(=O)c1ccco1,,"inconclusive [inhibitor, partial curve]"
O=c1cc(CSc2nnc(-c3ccco3)o2)c2ccccc2[nH]1,inactive: -4.29%,
COc1ccc(-c2csc(-c3cccs3)n2)c(OC)c1,,"inconclusive [inhibitor, single point]"
COc1ccc(C(=O)NCc2ccc3c(c2)cc(C)n3C)cc1OC,inactive: 4.1%,
CSc1nccc(N2CCN(c3ccc(F)cc3)CC2)n1,inactive: -2.84%,
COc1ccc2[nH]c(=O)c(CNc3ccccc3)cc2c1,,"inconclusive [inhibitor, full curve, poor fit]"
CCCC(C(=O)O)N1C(=O)/C(=C/c2cccn2C)SC1=S (stereo not given),inactive: -6.46%,
Cc1cccc(Nc2nc3ccccc3n3c(N)nnc23)c1,,"inconclusive [inhibitor, single point]"
CCn1cc(CN2CCCC(C(=O)c3ccc(-c4ccccc4)cc3)C2)cn1 (stereo not given),,"inconclusive [inhibitor, single point]"
COC(=O)c1cccc(C(=O)Nc2ccc(F)cc2)n1,,"inconclusive [inhibitor, single point]"
O=C(O)c1ccnc(C(=O)O)c1,,"inconclusive [inhibitor, partial curve]"
Cc1ccc2cc(C(c3nnnn3C(C)(C)C)N3CCCCCC3)c(=O)[nH]c2c1 (stereo not given),,"inconclusive [inhibitor, single point]"

Compound,"activity, negative = inhibition",Potency
Cc1ccc(S(=O)(=O)N2CCN(CC(=O)N/N=C/c3ccc(C)o3)CC2)cc1,inactive: 1.13%,
CSCCC1C(=O)OC2(C)CC(C)(C)NC(=S)N12 (stereo not given),inactive: 3.27%,
CCc1cccc(NC(=O)c2ccc3c(=O)n4nc(Nc5ccccc5OC)sc4nc3c2)c1,,"inconclusive [inhibitor, single point]"
O=C(N/N=C/C1C(c2ccccc2)C1(Cl)Cl)c1cccc(Cl)c1 (stereo not given),inactive: 5.32%,
CN1/C(=C/C=C(/C#N)C(N)=O)C(C)(C)c2ccccc21,inactive: -0.93%,
Oc1c(Cl)cc(Cl)cc1C1Nc2ccccc2-n2cccc21 (stereo not given),,"inconclusive [inhibitor, single point]"
Cc1noc(C)c1S(=O)(=O)NCCc1csc2nc(-c3ccc(F)cc3)nn12,,"inconclusive [inhibitor, partial curve]"
CCN(c1ccccc1)S(=O)(=O)c1nnc(NC(=O)COc2ccccc2F)s1,,"inconclusive [activator, single point]"
N#CCC(=O)Nc1ccc(C(=O)OCC(=O)Nc2ccccc2Sc2ccccc2)cc1,,active: 28.2 µM
COc1ccc(/C=C2\CCCc3c2nc2ccccc2c3C(=O)O)cc1OC,inactive: -14.4%,
CC(=O)Nc1nc(C)c(C(C)=O)s1,inactive: -12.4%,
CC(=O)Nc1ccc(S(=O)(=O)Nc2ccc3c(c2)n(C)c(=O)n3C)c(C)c1,,"inconclusive [inhibitor, full curve]"
O=C(CN1C(=O)/C(=C/c2ccccc2)SC1=S)NNC(=O)c1ccccc1O,,"inconclusive [activator, single point]"
COc1cc(C2C(=O)N(C3CCC(C)CC3)CC(=O)N2CCc2ccc(Cl)cc2)ccc1OC(C)C (stereo not given),inactive: 0.815%,
CN(C)S(=O)(=O)Oc1cccc(C(=O)Nc2ccc(Cl)cc2)c1,,"inconclusive [inhibitor, partial curve]"
Cc1[nH][nH]c(=O)c1C(c1c(C)[nH][nH]c1=O)c1cn(Cc2ccccc2Cl)c2ccccc12,,"inconclusive [inhibitor, partial curve]"
COc1ccc(CCNC(=O)Cn2nnc(-c3cccc(C(F)(F)F)c3)n2)cc1OC,inactive: -1.65%,
CC(CNC(=O)c1ccc(Cn2c(SCc3ccccc3)nc3cccnc32)cc1)c1ccccc1 (stereo not given),,"inconclusive [inhibitor, full curve, poor fit]"
S=c1[nH]nc(Cc2cccs2)n1-c1cccc2ccccc12,inactive: -3.25%,
C/C=C/C=C/C(=O)N1CC2(CC(c3cccc(NC(=O)CCCCC)c3)=NO2)C[C@H]1C(N)=O (stereo not given in full),inactive: -3.83%,
COc1cc2[nH]c(=O)n(Cc3ccc(C(=O)N4CCN(c5cccc(C)c5C)CC4)cc3)c(=O)c2cc1OC,,"inconclusive [inhibitor, partial curve]"
CCOC(=O)c1ccc(NC(=O)c2ccc3c(c2)CCN3S(=O)(=O)c2ccc(Cl)cc2)cc1,,"inconclusive [inhibitor, partial curve]"
